The other results are listed elsewhere or left out.
B1: chr19:12699786:12699848:-|3pUTR|ENSG00000105576|msi1_unk|total|mutant (ssRNA)
RNA: GGGAGUUCUACAGUCCGACGAUCCCUGCUCCAUCCAUCCCUCCUGGGCGCCAGACCCUCCAUCCAAGCCCUGUGUCUUUCCACCGUCAGGGUCAGGCCCUGCAUCUAUUCCAAGGGGCACUCAGUACACAUUCCAUAAAUCCGCAACAGAGGAUUGAGCAUCA
B2: chr10:62806226:62806343:+|3pUTR|ENSG00000181915|unk|FALSE|unique (ssRNA)
RNA: GGGAGUUCUACAGUCCGACGAUCCUACCCCUUAGUUAAAUAGGGUUUAUUUUCCACUCAUGCCCUUAUGCCUUUUUUUCUUAUAGUUUUUUAACUUAUUGACUGUGCAUGACCCAGUGGUUUGAAUUGUUUUUAGUUCAAGUCCAACAGAGGAUUGAGCAUCA
B3: chr9:115020670:115020933:-|3pUTR|ENSG00000041982|msi1|FALSE|unique (ssRNA)
RNA: GGGAGUUCUACAGUCCGACGAUCCUUCUCUUAGGUGGCUCUGGGAAUGGGAGAGGGGUAGGAUGUACAGGGGUAGUUUGUUUUAGAACCAGCCGUAUUUUACAUGAAGCUGUAUAAUUAAUUGUCAUUAUUUUUGUUAGCAAACAACAGAGGAUUGAGCAUCA
B4: chr3:197282668:197282805:-|CDS|ENSG00000075711|msi1|FALSE|unique (ssRNA)
RNA: GGGAGUUCUACAGUCCGACGAUCUGGGAGAUUUCCAGCCUUCCAAGCUCUACUGUGACUUCAGAGACACUGCCAAGCAGCCUUAGCCCUAGUGUAGAGGUGAGAUAAAAAAUGUGUUCUGAAGCUGUUUUUUGGUGAUCAAUUCAACAGAGGAUUGAGCAUCA
B5: chr5:173956200:173956301:+|3pUTR|ENSG00000113742|unk|FALSE|unique (ssRNA)
RNA: GGGAGUUCUACAGUCCGACGAUCCCCCUUCCUCAACCUCUUCACGCUGGCAUGUCCUUUUGUAGCAGUCUGUAACUUAACUAUAGUAUAAUGAAAAGAAUGACCUAUAAUAUAGGUGUUUUGUAGAUUCUUGUGUCACUGCAACAACAGAGGAUUGAGCAUCA
B6: chr5:150657389:150657496:+|3pUTR|ENSG00000171992|unk|total|mutant (ssRNA)
RNA: GGGAGUUCUACAGUCCGACGAUCCUCUCUCUCUCUCUCACACACACACACACACACACACACACACACACACACACACACACCCGUCCGUGCCUUGGAUGAGGCGGGGCAGUGUGUAUAUGGACCCCUGGACUUGCUACCUUCCAACAGAGGAUUGAGCAUCA

What follows are binders tested against T1, UNK ZnF1-6 (called full-length) (human, UniProt Q9C0B0 30-357) (assay: nsRBNS (natural sequence RNA bind-n-seq); RBNS binding buffer (assumed for nsRBNS): 25 mM Tris pH 7.5, 150 mM KCl, 3 mM MgCl2, 0.01% Triton X-100, 500 ug/ml BSA, 20 U/ml SUPERase-In, 4 C; UNK is unkempt and MSI1 is Musashi-1; names of the RNAs are library labels; protein concentration not given here; high values mean tight binding).
T1 sequence: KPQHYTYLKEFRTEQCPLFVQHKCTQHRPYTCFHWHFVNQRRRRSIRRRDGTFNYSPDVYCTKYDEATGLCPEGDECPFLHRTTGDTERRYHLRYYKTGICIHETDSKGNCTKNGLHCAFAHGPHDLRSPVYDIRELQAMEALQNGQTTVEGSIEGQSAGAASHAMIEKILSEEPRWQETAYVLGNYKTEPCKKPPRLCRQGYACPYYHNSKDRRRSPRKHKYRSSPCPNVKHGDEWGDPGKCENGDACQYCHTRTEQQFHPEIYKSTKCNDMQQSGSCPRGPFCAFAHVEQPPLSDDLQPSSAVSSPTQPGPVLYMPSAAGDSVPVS
Work on B1 yielded a binding signal of 0.878 enrichment R.
With B2 the binding signal was 15.8 enrichment R.
In the case of B3, the binding signal is reported as 6.74 enrichment R.
B4 was tested, and the binding signal was 0.536 enrichment R.
Binder B5 has a binding signal of 2.33 enrichment R.
In the case of B6, the binding signal is reported as 1.3 enrichment R.
